According to patent US20230278972A1, “SUBSTITUTED HALOALKYL SULFONANILIDE HERBICIDES” (FMC Corporation, priority 2020, published 2023):

Legend:
[1] = test system: sedge, umbrella (small-flower umbrella sedge, Cyperus difformis); test: Test B1 flooded paddy test, sedge, umbrella; assay type: in vivo; settings: 250 g ai/ha, Flood, applied to paddy water, 2-leaf stage, visually evaluated after 10 to 14 days
Description: A dash (-) response means no test result.

[2] = test system: sedge, umbrella (small-flower umbrella sedge, Cyperus difformis); test: Test B flooded paddy test, sedge, umbrella; settings: Flood, 250 g ai/ha; visual rating after 13 to 15 days; scale of 0 to 100 where 0 is no effect and 100 is complete control
[3] = test system: barnyardgrass (Echinochloa crus-galli); test: Test B flooded paddy test, barnyardgrass; settings: Flood, 250 g ai/ha; visual rating after 13 to 15 days; scale of 0 to 100 where 0 is no effect and 100 is complete control
[4] = test system: ducksalad (Heteranthera limosa); test: Test B flooded paddy test, ducksalad; settings: Flood, 250 g ai/ha; visual rating after 13 to 15 days; scale of 0 to 100 where 0 is no effect and 100 is complete control
rice (Oryza sativa) = test: Test B flooded paddy test, rice; settings: Flood, 250 g ai/ha; visual rating after 13 to 15 days; scale of 0 to 100 where 0 is no effect and 100 is complete control

| Structure (SMILES) | Plant response rating, Sedge, Umbrella (0 to 100 scale, 0 is no effect, 100 is complete control) [1] | also measured |
| --- | --- | --- |
| Cc1c(C(=O)N2C[C@@H](C)O[C@H](C)C2)cc(N(COC(=O)C(C)(C)C)S(=O)(=O)C(F)(F)F)c(C)c1C (relative stereo) [Compound 373] | 95 | – |
| CCOC(=O)N(c1cc(C(=O)N2C[C@@H](C)O[C@H](C)C2)c(C)c(C)c1C)S(=O)(=O)C(F)(F)F (relative stereo) [Compound 374] | 95 | – |
| Cc1cc(C)c(N(COC(=O)C(C)(C)C)S(=O)(=O)C(F)(F)F)cc1C1=NOC2CCCCCC12 (single isomer, unassigned) [Compound 294] | 95 | – |
| Cc1cc(C)c(N(S(=O)(=O)C(F)(F)F)S(=O)(=O)C(F)(F)F)cc1N1CC2(CCCCC2)OC1=O [Compound 269] | – | Plant response rating, Sedge, Umbrella [2]: 95; Plant response rating, Barnyardgrass [3]: 0; Plant response rating, Ducksalad [4]: 85; Plant response rating, Rice (rice (Oryza sativa)): 0 |
| Cc1cc(C)c(N2CCC3(CCCC3)C2=O)cc1NS(=O)(=O)C(F)(F)F [Compound 270] | – | Plant response rating, Sedge, Umbrella [2]: 90; Plant response rating, Barnyardgrass [3]: 25; Plant response rating, Ducksalad [4]: 45; Plant response rating, Rice (rice (Oryza sativa)): 0 |
| Cc1cc(C)c(N(S(=O)(=O)C(F)(F)F)S(=O)(=O)C(F)(F)F)cc1C(=O)N1CCCOCC1 [Compound 276] | – | Plant response rating, Sedge, Umbrella [2]: 85; Plant response rating, Barnyardgrass [3]: 15; Plant response rating, Ducksalad [4]: 55; Plant response rating, Rice (rice (Oryza sativa)): 15 |
| Cc1cc(C)c(C2=NOC3(CCCCCC3)C2)cc1NS(=O)(=O)C(F)(F)F [Compound 277] | – | Plant response rating, Sedge, Umbrella [2]: 90; Plant response rating, Barnyardgrass [3]: 25; Plant response rating, Ducksalad [4]: 45; Plant response rating, Rice (rice (Oryza sativa)): 25 |
| Cc1cc(C)c(N2CC3(CCCCC3)OC2=O)cc1NS(=O)(=O)C(F)(F)F [Compound 279] | – | Plant response rating, Sedge, Umbrella [2]: 0; Plant response rating, Barnyardgrass [3]: 0; Plant response rating, Ducksalad [4]: 0; Plant response rating, Rice (rice (Oryza sativa)): 0 |
| Cc1cc(C)c(N(S(=O)(=O)C(F)(F)F)S(=O)(=O)C(F)(F)F)cc1N1CCC2(CCCC2)C1=O [Compound 280] | – | Plant response rating, Sedge, Umbrella [2]: 95; Plant response rating, Barnyardgrass [3]: 95; Plant response rating, Ducksalad [4]: 35; Plant response rating, Rice (rice (Oryza sativa)): 0 |
| Cc1cc(C)c(-n2nccc(C)c2=O)cc1NS(=O)(=O)C(F)(F)F [Compound 281] | 0 | – |
| COc1cnn(-c2cc(NS(=O)(=O)C(F)(F)F)c(C)cc2C)c(=O)c1OC [Compound 282] | 0 | – |
| Cc1c(NS(=O)(=O)C(F)(F)F)cc(C(=O)N2CCSCC2)c(C)c1C [Compound 283] | 80 | – |
| Cc1c(C(=O)N2CCSCC2)cc(N(COC(=O)C(C)(C)C)S(=O)(=O)C(F)(F)F)c(C)c1C [Compound 285] | 75 | – |
| CCOC(=O)N(c1cc(C(=O)N2CCSCC2)c(C)c(C)c1C)S(=O)(=O)C(F)(F)F [Compound 286] | 70 | – |
| Cc1c(NS(=O)(=O)C(F)(F)F)cc(C(=O)N(C)C)c(C)c1Cl [Compound 287] | 90 | – |
| Cc1c(NS(=O)(=O)C(F)(F)F)cc(C(=O)N(C)C)c(C)c1C [Compound 288] | 95 | – |
| Cc1c(NS(=O)(=O)C(F)(F)F)cc(C(=O)N2CCOCC2)c(C)c1C [Compound 289, 1,1,1-Trifluoro-N-[2,3,4-trimethyl-5-(4-morpholinylcarbonyl)phenyl]methanesulfonamide] | 90 | – |
| Cc1c(NS(=O)(=O)C(F)(F)F)cc(C(=O)N2CCOCC2)c(C)c1Cl [Compound 290] | 65 | – |
| Cc1cc(C)c(C2=NOC3CCCCCC23)cc1NS(=O)(=O)C(F)(F)F (stereo not drawn) [Compound 292] | 90 | – |
| Cc1cc(C)c(N(C(=O)OC(C)C)S(=O)(=O)C(F)(F)F)cc1C1=NOC2CCCC12 (stereo not drawn) [Compound 295] | 90 | – |

| Structure (SMILES) | Plant response rating, Sedge, Umbrella (0 to 100 scale, 0 is no effect, 100 is complete control) [1] | also measured |
| --- | --- | --- |
| Cc1cc(C)c(N(S(=O)(=O)C(F)(F)F)S(=O)(=O)C(F)(F)F)cc1C1=NOC2COCC12 (stereo not drawn) [Compound 296] | 85 | – |
| Cc1cc(C)c(C2=NOC3COCC23)cc1NS(=O)(=O)C(F)(F)F (stereo not drawn) [Compound 297] | 95 | – |
| Cc1cc(C)c(N(C(=O)OCC(C)C)S(=O)(=O)C(F)(F)F)cc1C1=NOC2CCCC12 (stereo not drawn) [Compound 299] | 95 | – |
| Cc1cc(C)c(N(COC(=O)C(C)(C)C)S(=O)(=O)C(F)(F)F)cc1C1=NOC2COCC12 (stereo not drawn) [Compound 301] | 95 | – |
| Cc1cc(Br)c(C2=NOC3CCCC23)cc1NS(=O)(=O)C(F)(F)F (stereo not drawn) [Compound 302] | 75 | – |
| Cc1cc(F)c(NS(=O)(=O)C(F)(F)F)cc1C1=NOC2(CCCC2)C1 [Compound 303] | 0 | – |
| COc1cc(C)c(C2=NOC3(CCCC3)C2)cc1NS(=O)(=O)C(F)(F)F [Compound 304] | 0 | – |
| CCc1cc(C)c(NS(=O)(=O)C(F)(F)F)cc1C1=NOC2CCCC12 (stereo not drawn) [Compound 305] | 90 | – |
| Cc1cc(C(F)(F)F)c(C2=NOC3CCCC23)cc1NS(=O)(=O)C(F)(F)F (stereo not drawn) [Compound 306] | 98 | – |
| Cc1cc(C2CC2)c(C2=NOC3CCCC23)cc1NS(=O)(=O)C(F)(F)F (stereo not drawn) [Compound 307] | 98 | – |
| Cc1cc(C)c(N(COC(=O)C(C)C)S(=O)(=O)C(F)(F)F)cc1C1=NOC2CCCC12 (stereo not drawn) [Compound 308] | 95 | – |
| Cc1cc(Br)c(NS(=O)(=O)C(F)(F)F)cc1C1=NOC2(CCCC2)C1 [Compound 309] | 75 | – |
| Cc1cc(F)c(C2=NOC3CCCC23)cc1NS(=O)(=O)C(F)(F)F (stereo not drawn) [Compound 310] | 0 | – |
| CCc1cc(C)c(C2=NOC3(CCCC3)C2)cc1NS(=O)(=O)C(F)(F)F [Compound 311] | 0 | – |
| COc1cc(C)c(NS(=O)(=O)C(F)(F)F)cc1C1=NOC2CCCC12 (stereo not drawn) [Compound 312] | 0 | – |
| Cc1cc(C2CC2)c(NS(=O)(=O)C(F)(F)F)cc1C1=NOC2(CCCC2)C1 [Compound 313] | 0 | – |
| Cc1cc(C)c(N(COC(=O)OC(C)C)S(=O)(=O)C(F)(F)F)cc1C1=NOC2CCCC12 (stereo not drawn) [Compound 314] | 90 | – |
| COC(=O)OCN(c1cc(C2=NOC3CCCC23)c(C)cc1C)S(=O)(=O)C(F)(F)F (stereo not drawn) [Compound 315] | 90 | – |
| Cc1cc(C)c(N(COC(=O)OC(C)(C)C)S(=O)(=O)C(F)(F)F)cc1C1=NOC2CCCC12 (stereo not drawn) [Compound 316] | 90 | – |
